Assay results as given in PubChem BioAssay AID212 (DTP/NCI, 2004).
Records with an inconclusive call do not appear. A number of entries come with more than one value. The other results are left out here. The source may hold further records. The records of an entry repeat one measurement in other runs, samples, wells, individuals or studies.

Test system: BDF1 mice, colon carcinoma 38 sc, T/C %
Test: NCI In Vivo Anticancer Drug Screen. Data for tumor model Colon Carcinoma 38 (subcutaneous) in B6D2F1 (BDF1) mice
Settings: endpoint: median tumor weight (est.), higher = larger tumour
Procedure, shortened: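 Transplantable tumor in mice; compound-treated vs vehicle-dosed controls. Measured survival or tumor size; value = T ÷ C.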

[1] = dose: 12.5 mg/kg/injection, schedule: Q07DX002 (ip), vehicle: saline with Tween-80
[2] = dose: 50.0 mg/kg/injection, schedule: Q07DX002 (ip), vehicle: saline with Tween-80

Question: For `C/C(=C\c1ccccc1)[N+](=O)[O-]`, which T/C (dose: 3.12 mg/kg/injection, schedule: Q07DX003 (ip), vehicle: Klucel (hydroxypropylcellulose) (HPC)) is on record?
Answer: 67 % of control and 94 % of control

Question: And the T/C (dose: 6.25 mg/kg/injection, schedule: Q07DX003 (ip), vehicle: Klucel (hydroxypropylcellulose) (HPC))?
Answer: 68 % of control and 118 % of control

Question: What about the T/C (dose: 100.0 mg/kg/injection, schedule: Q07DX003 (ip), vehicle: Klucel (hydroxypropylcellulose) (HPC)) of the same compound?
Answer: 69 % of control and 108 % of control

Question: Which T/C (dose: 1.25 mg/kg/injection, schedule: Q07DX002 (ip), vehicle: saline with Tween-80) does the source give for `CN(C)c1ccc(C(=C2C=CC(=[N+](C)C)C=C2)c2ccc(N(C)C)cc2)cc1` (tested in a mixture with another compound) here?
Answer: 85 % of control and 119 % of control

Question: And the T/C (dose: 5.0 mg/kg/injection, schedule: Q07DX002 (ip), vehicle: saline with Tween-80)?
Answer: 111 % of control and 164 % of control

Question: Which T/C (dose: 0.37 mg/kg/injection, schedule: Q07DX002 (ip), vehicle: saline) does the source give for `Nc1ncn(C2CC(O)C(CO)O2)c(=O)n1` (centres undefined) here?
Answer: 32 % of control and 188 % of control

Question: And the T/C (dose: 0.75 mg/kg/injection, schedule: Q07DX002 (ip), vehicle: saline)?
Answer: 43 % of control and 75 % of control

Question: And the T/C (dose: 1.5 mg/kg/injection, schedule: Q07DX002 (ip), vehicle: saline)?
Answer: 37 % of control and 65 % of control

Question: `O=C(CCBr)N1CCN(C(=O)CCBr)CC1` was tested. Which T/C (dose: 160.0 mg/kg/injection, schedule: Q07DX002 (ip), vehicle: saline with Tween-80) did it give?
Answer: 58 % of control and 93 % of control

Question: And the T/C (dose: 320.0 mg/kg/injection, schedule: Q07DX002 (ip), vehicle: saline with Tween-80)?
Answer: 56 % of control and 121 % of control

Question: `CC(=O)Nc1ccc(S(=O)(=O)CO)cc1` was tested. Which T/C (dose: 400.0 mg/kg/injection, schedule: Q07DX002 (ip), vehicle: saline with Tween-80) did it give?
Answer: 76 % of control and 124 % of control

Question: For `COc1cc2c3c(cccc3c1)C(=O)N(CCN(C)C)C2=O`, which T/C (dose: 20.0 mg/kg/injection, schedule: Q07DX002 (ip), vehicle: saline with Tween-80) is on record?
Answer: 78 % of control and 116 % of control

Question: How did the T/C (dose: 2.0 mg/kg/injection, schedule: Q07DX002 (ip), vehicle: saline) turn out when `COc1cc2c(cc1O)N=C[C@@H]1CCC(O)N1C2=O` (mixture of isomers) was run?
Answer: 86 % of control and 116 % of control

Question: Which T/C (dose: 50.0 mg/kg/injection, schedule: Q07DX002 (ip), vehicle: saline) does the source give for `NC(=O)c1ccc[n+](Cc2c(Cl)cccc2Cl)c1` here?
Answer: 61 % of control and 97 % of control

Question: `COc1cc(OC)c(OC)cc1/C=C\c1ccnc2ccccc12` was tested. Which T/C (dose: 200.0 mg/kg/injection, schedule: Q07DX002 (ip), vehicle: Klucel (hydroxypropylcellulose) (HPC)) did it give?
Answer: 70 % of control and 115 % of control

Question: Which results are given for `Cc1nnc2ncccn12`?
Answer: T/C (dose: 25.0 mg/kg/injection, schedule: Q07DX002 (ip), vehicle: saline): 90 % of control and 116 % of control; T/C (dose: 100.0 mg/kg/injection, schedule: Q07DX002 (ip), vehicle: saline): 89 % of control and 120 % of control

Question: What does the source list for `Nc1n[n+](-c2ccccc2)no1`?
Answer: T/C (dose: 12.5 mg/kg/injection, schedule: Q07DX002 (ip), vehicle: water): 66 % of control, 113 % of control, 114 % of control; T/C (dose: 25.0 mg/kg/injection, schedule: Q07DX002 (ip), vehicle: water): 68 % of control, 106 % of control, 108 % of control

Question: What does the source list for `Cn1c2nc(=O)n(-c3ccccc3)c(=O)c-2nc2c1CCCC2`?
Answer: T/C [1]: 79 % of control and 113 % of control; T/C [2]: 93 % of control and 123 % of control

Question: What does the source list for `COc1cc(NS(C)(=O)=O)ccc1Nc1c2ccccc2nc2ccccc12`?
Answer: T/C (dose: 0.5 mg/kg/injection, schedule: Q07DX002 (ip), vehicle: other): 73 % of control and 115 % of control; T/C (dose: 2.0 mg/kg/injection, schedule: Q07DX002 (ip), vehicle: other): 58 % of control and 100 % of control; T/C (dose: 8.0 mg/kg/injection, schedule: Q07DX002 (ip), vehicle: other): 19 % of control and 74 % of control

Question: Which T/C (dose: 50.0 mg/kg/injection, schedule: Q07DX002 (ip), vehicle: Klucel (hydroxypropylcellulose) (HPC)) does the source give for `CCOC(=O)CNC(=O)Sc1ccc(C(C)(C)C)cc1` here?
Answer: 88 % of control and 121 % of control

Question: Which T/C [1] does the source give for `COC(=O)Nc1ccc(Cc2ccc(NC(=O)OC)cc2)cc1` here?
Answer: 76 % of control, 99 % of control, 103 % of control

Question: And the T/C (dose: 25.0 mg/kg/injection, schedule: Q07DX002 (ip), vehicle: saline with Tween-80)?
Answer: 78 % of control and 122 % of control

Question: And the T/C [2]?
Answer: 43 % of control, 108 % of control, 111 % of control

Question: And the T/C (dose: 100.0 mg/kg/injection, schedule: Q07DX002 (ip), vehicle: saline with Tween-80)?
Answer: 58 % of control, 93 % of control, 117 % of control
